Screen size: about 290,000 compounds; about 2,100 (0.72%) were called active. Inconclusive means that the source gave no clear call. Such entries were picked first, then a sample of the others. Calls come from the whole dose curve; as a rule, active = well fitted inhibition curve with a large enough effect; inconclusive = small, poorly fitted or top-dose-only effect, or effect the other way; inactive = flat fitted curve, though single readings scatter. A potency beside an inconclusive call is a rough fit, not a confirmed value.
Biological target: Fructose-bisphosphate aldolase (Giardia intestinalis (strain ATCC 50803 / WB clone C6)) (UniProt A8B2U2)
UniProt A8B2U2, sequence (A8B2U2 whole entry, looked up): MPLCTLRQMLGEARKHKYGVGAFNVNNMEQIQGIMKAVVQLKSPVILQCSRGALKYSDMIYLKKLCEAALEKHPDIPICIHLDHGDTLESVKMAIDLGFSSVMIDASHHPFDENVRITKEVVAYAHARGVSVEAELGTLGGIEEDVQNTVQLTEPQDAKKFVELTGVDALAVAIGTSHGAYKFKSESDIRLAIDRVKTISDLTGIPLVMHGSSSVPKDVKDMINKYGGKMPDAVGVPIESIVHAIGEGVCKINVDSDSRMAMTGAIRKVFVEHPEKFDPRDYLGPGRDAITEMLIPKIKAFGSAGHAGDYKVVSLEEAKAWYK
Experiment: qHTS Assay for Inhibitors of Fructose-1,6-bisphosphate Aldolase from Giardia Lamblia; note: nearly all actives have a fitted effect of over 55% in size
Details: purified Giardia FBPA; activity, negative = inhibition: at 59.6 µM (top of the series) unless noted
Summary of the method: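 Giardia FBPA (40 nM reagent) was preincubated 10 min at RT with compound (up to 57.5 uM final), then substrate plus GAPDH/TPI/NAD/arsenate coupling system with diaphorase/resazurin was added; resorufin fluorescence (525/598 nm) was read after 20 min.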
% is set by controls: 0 for no effect and ±100 for the full control effect; potency is the fitted concentration of half-maximal effect; tags give direction and shape of the fitted curve.

SMILES	Potency	activity, negative = inhibition
COc1cc(-c2nc(S(=O)(=O)c3ccc(C)cc3)c(N3CCOCC3)o2)cc(OC)c1OC	active: 35.5 µM	
CC(=O)c1ccc(N2CCN(C(=O)c3cc(-c4ccncc4)nc4ccc(Br)cc34)CC2)cc1		inactive: 12.4%
N#CC(C#N)=C1C(=O)N(CCN2CCCCC2)c2ccccc21	inconclusive: 19.9 µM [inhibitor, partial curve]	
CC(=O)Nc1ccc2c(c1)nc(CN1CCCC1)n2C	inconclusive: 15.8 µM [inhibitor, single point]	
N#Cc1ccccc1S(=O)(=O)N1CCN(CC(O)c2ccccc2)CC1 (stereo not drawn)	inconclusive: 15.8 µM [inhibitor, single point]	
CCOc1c(Br)cc(CNc2ccc3c(c2)OCCO3)cc1OC	inconclusive: 19.9 µM [inhibitor, single point]	
CN(c1ccc(C(=O)Nc2ccc(Cl)cn2)cc1)S(=O)(=O)c1ccccc1		inactive: -27.4%
O=C(N/N=C/c1cc(Br)c(Br)o1)c1ccc2c(c1)OCCO2	active: 12.6 µM	
COc1cccc(CN2CCN(Cc3ccccc3C(F)(F)F)CC2)c1	inconclusive: 14.1 µM [inhibitor, partial curve]	
COC(=O)CSc1n[nH]c(=S)s1	inconclusive: 15.8 µM [inhibitor, partial curve]	
O=C(O)c1ccccc1C(=O)Nc1ccc(Br)c2cccnc12	inconclusive: 31.5 µM [inhibitor, single point]	
COc1ccc(N=c2scc(-c3ccc(S(=O)(=O)N4CCOCC4)cc3)n2CCCO)cc1		inactive: -11.6%
O=C(NCCc1ccc(F)cc1)N1CCOCC1		inactive: 5.2%
CN1CCN(C(=O)c2ccccc2-c2nc(-c3ccccc3)no2)CC1		inactive: -8.47%
CC(C)CCC[C@@H](C)[C@H]1CC[C@H]2[C@@H]3CC=C4CC(O)CC[C@]4(C)[C@H]3CC[C@]12C (stereo partly drawn)		inactive: 2.34%
COc1ccc(NC2CC(=O)N(C(C)C)C2=O)cc1 (stereo not drawn)	inconclusive: 19.9 µM [inhibitor, partial curve]	
Clc1cccc(N2CCN(Cc3ccc(Br)o3)CC2)c1	inconclusive: 28.2 µM [inhibitor, partial curve]	
CC(=O)Oc1cc2c(C(=O)NCc3ccncc3)c(C)oc2c2ccccc12	inconclusive: 19.9 µM [inhibitor, partial curve]	
O=C(NNc1c2ccccc2nc2ccccc12)c1ccccc1Cl		inactive: 7.38%
CC(C)C[C@H](NC(=O)[C@H](CC(C)C)NC(=O)[C@H](Cc1ccccc1)NC(=O)[C@@H](N)Cc1ccc(O)cc1)C(=O)N[C@@H](CCCN=C(N)N)C(=O)N[C@@H](CC(N)=O)C(=O)N1CCC[C@H]1C(=O)O		inactive: 3.44%
N[C@@H](Cn1ccc(=O)n(Cc2ccccc2C(=O)O)c1=O)C(=O)O	inconclusive: 19.9 µM [inhibitor, partial curve]	
Cc1ccc(S(=O)(=O)/N=C/c2c(O)ccc3ccccc23)cc1	inconclusive: 20 µM [inhibitor, partial curve]	
COc1cc(C(=O)O/N=C2/C=CC(=O)C(C)=C2C)cc(OC)c1OC	active: 3.97 µM	
COc1ccc(CN2CCN(C(=O)c3cccc(OC)c3OC)CC2)cc1OC	active: 19.9 µM	
COC1C(O)C(C)O[C@@H](OC2CC[C@@]3(C)C4CC[C@]5(C)C(C6=CC(=O)OC6)CC[C@@]5(O)C4CC[C@@H]3C2)C1O (stereo partly drawn)		inactive: 0.784%

SMILES	Potency	activity, negative = inhibition
O=C(Nc1ccc(Cl)cc1)Nc1cccnc1		inactive: -0.181%
COc1cccc(C(=O)N2CCN(Cc3ccccc3[N+](=O)[O-])CC2)c1	inconclusive: 15.8 µM [inhibitor, single point]	
CCOc1cccc(C2/C(=C(/O)c3ccc4c(c3)CC(C)O4)C(=O)C(=O)N2CCCn2ccnc2)c1 (stereo not drawn)	inconclusive: 15.8 µM [inhibitor, partial curve, poor fit]	
O=C(O)c1cc(N2N=C(C(F)(F)F)/C(=C/C=C/c3ccco3)C2=O)ccc1Cl	inconclusive: 35.4 µM [inhibitor, single point]	
COc1ccc(OC)c(-c2csc(NC(=O)Cc3ccccc3OC)n2)c1		inactive: 0.767%
COc1ccccc1NC(=O)CSc1n[nH]c(-c2cccnc2)n1	inconclusive: 25.1 µM [inhibitor, partial curve]	
O=C(N/N=C/C=C\c1ccccc1[N+](=O)[O-])c1ccncc1	inconclusive: 15.8 µM [inhibitor, single point]	
CC(NCc1ccc(S(N)(=O)=O)cc1)C(=O)N1c2ccccc2CC1C (stereo not drawn)	inconclusive: 14.1 µM [inhibitor, partial curve]	
CNc1ccccc(-c2ccc3ccccc3n2)c1=O	inconclusive: 5.61 µM [inhibitor, partial curve]	
COc1cccc(/C(O)=C/C(=O)C(=O)Nc2ccc(S(=O)(=O)NC(C)=O)cc2)c1	inconclusive: 9.98 µM [inhibitor, partial curve]	
Fc1ccc(/C=N/NC(=S)Nc2cccnc2)cc1F		inactive: -6.2%
Cc1ccc(S(=O)(=O)Nc2cc(C)cn(Cc3ccc(F)cc3)c2=O)cc1	active: 15.8 µM	
COc1cc2c(C)c3c4c(cc(OC)c(OC)c4c2cc1OC)CCN3C	inconclusive: 9.98 µM [inhibitor, partial curve]	
C/C=C\C=C\C(=O)Nc1cccc(C2=NOC3(C2)C[C@H](C(N)=O)N(C(=O)c2ccccc2C(=O)c2ccccc2)C3)c1 (stereo partly drawn)		inactive: -14%
O=[N+]([O-])c1cccnc1N1CCC(c2cc(-c3ccc(Cl)cc3Cl)n[nH]2)CC1		inactive: -5.35%
CN(C)c1ccc(NC(=O)CCCc2ccccc2)cc1	inconclusive: 15.8 µM [inhibitor, single point]	
C=CCn1c(CCC(O)COCCC)n[nH]c1=S (stereo not drawn)	inconclusive: 11.2 µM [inhibitor, partial curve]	
Cc1cc(S(=O)(=O)N(Cc2ccccc2Cl)c2ccc3c(c2)CCC3)ccc1-n1cnnn1		inactive: -4.55%
COc1cccc(N2CC(C(=O)Nc3nnc(SCCN4CCOCC4)s3)CC2=O)c1 (stereo not drawn)	inconclusive: 31.6 µM [inhibitor, partial curve]	
COc1ccc(CN2CCCC(C(=O)N3CCCCC3)C2)cc1 (stereo not drawn)	inconclusive: 17.8 µM [inhibitor, partial curve]	
N=C1/C(=C\c2ccc(OC(=O)c3ccco3)cc2)C(=O)N=C2SC(N3CCCCC3)=NN12	inconclusive: 31.6 µM [inhibitor, single point]	
NC(=O)C1=C[C@H](c2ccccc2)C[C@H](OCc2ccc(CO)cc2)O1	inconclusive: 15.8 µM [inhibitor, partial curve]	
S=C(NCCN1CCOCC1)Nc1ccccc1Cl	inconclusive: 17.7 µM [inhibitor, partial curve]	
CC(=O)c1ccc(OCCCC(=O)Nc2cccc(-c3nn[nH]n3)c2)cc1	inconclusive: 25.1 µM [inhibitor, single point]	
Cc1ccc(CCSc2ccc(C(C)C)cc2)cn1		inactive: -1.29%

SMILES	Potency	activity, negative = inhibition
C=CCNC(=S)Nc1cccc(N)c1	inconclusive: 19.9 µM [inhibitor, partial curve]	
Cc1c(N/N=C(\C#N)C(=O)c2ccccc2)c(=O)n(-c2ccccc2)n1C	inconclusive: 15.8 µM [inhibitor, partial curve]	
COc1cccc(CNC(=O)CSc2nnc3c(n2)[nH]c2ccc(F)cc23)c1	inconclusive: 12.6 µM [inhibitor, single point]	
CCC[C@@H](CN[C@@H](CNC)[C@H](C)CC)NCC1CCC(C(C)(C)C)CC1 (stereo partly drawn)	inconclusive: 14.1 µM [activator, partial curve]	
Cc1cnc(CNc2ncncc2-c2ccc(N(C)C)cc2)cn1	inconclusive: 19.9 µM [inhibitor, partial curve]	
C=CCOn1c(C)c(C(C)=O)c2c3nonc3ccc21	inconclusive: 7.92 µM [inhibitor, full curve, poor fit]	
CC(C)(C)n1ncc2c(=O)n(CC(=O)NCc3ccccc3Cl)cnc21		inactive: 4.29%
CCOC(=O)CC(=O)Nc1ccccc1C(=O)O		inactive: -0.561%
C=CCn1c(=S)[nH]c2nc3c(cc2c1=O)COC(C)(C)C3	inconclusive: 14.1 µM [inhibitor, partial curve]	
CCOc1ccc(-c2nnc(-c3cccs3)o2)cc1		inactive: 0.528%
COC(=O)c1ccccc1NC(=O)c1ccccc1N(C)S(=O)(=O)c1ccccc1		inactive: 1.78%
CCCS(=O)(=O)c1cnc(C2COc3ccccc3O2)nc1N (stereo not drawn)		inactive: 8.71%
O=C(c1cc(COc2c(F)cccc2F)on1)N1CCC(c2ccccc2F)C1 (stereo not drawn)		inactive: 0.484%
CC(C)(C)c1csc(NC(=O)c2ccccc2O)n1	inconclusive: 25.1 µM [inhibitor, partial curve]	
COc1ccc(N2C(=O)NC(=O)C2=O)cc1	inconclusive: 28.2 µM [inhibitor, partial curve]	
Cc1nc(NC(=O)CN2CC(C)OC(C)C2)sc1C(=O)N(C)C (stereo not drawn)	active: 11.2 µM	
Cc1ccc(CCNC(=O)c2cc(S(=O)(=O)N3CCCC3)cn2C)cc1		inactive: 3.15%
O=C(NCc1ccc2[nH]c3c(c2c1)CCCC3)N1CCOCC1	inconclusive: 12.6 µM [inhibitor, partial curve]	
O=C(Nc1ccc(Cl)cn1)Nc1ccccc1F		inactive: 3.32%
CCCn1cnc2c(=S)nc(N)[nH]c21	active: 4.46 µM	
N#CC(C#N)=C(Nc1ccc(F)cc1)SCc1cccc(Br)c1		inactive: -3.58%
O=C(Cc1ccccc1F)Nc1ccc2c(c1)CCC2		inactive: -11.6%
CC1(C)C2CCC(C2)C1(C)NC(=O)CNC1CCCCC1 (stereo not drawn)	inconclusive: 19.9 µM [inhibitor, partial curve]	

Reference: PubChem BioAssay AID2451 (National Center for Advancing Translational Sciences (NCATS), 2010)
